# Source: the supplement of paper PMC8728848
# This is one part of the list.
# Assays:
# Experiment in all cases: glycan array binding signal (z-score within array); higher = stronger binding
# Details in all cases: glycan notation: IUPAC condensed, linker removed
# [1] = molecular target: Neu5Ac(a2-3)Gal(b1-4)GlcNAc(b1-2)Man(a1-3)[GlcNAc(b1-2)Man(b1-4)GlcNAc(b1-2)Man(a1-6)]Man(b1-4)GlcNAc(b1-4)GlcNAc
# Method in brief: (§1)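 From the Consortium for Functional Glycomics database, 3228 arrays were curated, keeping only those whose protein sequence was available. Binding is given as a within-array Z-score averaged across arrays sharing a protein sequence and across linkers. Negative Z-scores can be read as non-binding.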
# [2] = molecular target: Neu5Ac(a2-3)Gal(b1-4)GlcNAc(b1-2)Man(a1-3)[GlcNAc(b1-4)][Neu5Ac(a2-3)Gal(b1-4)GlcNAc(b1-2)Man(a1-6)]Man(b1-4)GlcNAc(b1-4)GlcNAc
# Method in brief: as §1
# [3] = molecular target: Neu5Ac(a2-3)Gal(b1-4)GlcNAc(b1-2)Man(a1-3)[Neu5Ac(a2-3)Gal(b1-4)GlcNAc(b1-2)Man(a1-6)]Man(b1-4)GlcNAc(b1-4)GlcNAc
# Method in brief: as §1
# [4] = molecular target: Neu5Ac(a2-3)Gal(b1-4)GlcNAc(b1-2)Man(a1-3)[Neu5Ac(a2-3)Gal(b1-4)GlcNAc(b1-2)Man(a1-6)]Man(b1-4)GlcNAc(b1-4)[Fuc(a1-6)]GlcNAc
# Method in brief: as §1
# [5] = molecular target: Neu5Ac(a2-3)Gal(b1-4)GlcNAc(b1-2)Man(a1-3)[Neu5Ac(a2-6)Gal(b1-4)GlcNAc(b1-2)Man(a1-6)]Man(b1-4)GlcNAc(b1-4)GlcNAc
# Method in brief: as §1
# [6] = molecular target: Neu5Ac(a2-3)Gal(b1-4)GlcNAc(b1-2)[Neu5Ac(a2-3)Gal(b1-4)GlcNAc(b1-4)]Man(a1-3)[GlcNAc(b1-4)][Neu5Ac(a2-3)Gal(b1-4)GlcNAc(b1-2)[Neu5Ac(a2-3)Gal(b1-4)GlcNAc(b1-6)]Man(a1-6)]Man(b1-4)GlcNAc(b1-4)GlcNAc
# Method in brief: as §1
# [7] = molecular target: Neu5Ac(a2-3)Gal(b1-4)GlcNAc(b1-2)[Neu5Ac(a2-3)Gal(b1-4)GlcNAc(b1-4)]Man(a1-3)[GlcNAc(b1-4)][Neu5Ac(a2-3)Gal(b1-4)GlcNAc(b1-4)Man(a1-6)]Man(b1-4)GlcNAc(b1-4)GlcNAc
# Method in brief: as §1
# [8] = molecular target: Neu5Ac(a2-3)Gal(b1-4)GlcNAc(b1-2)[Neu5Ac(a2-3)Gal(b1-4)GlcNAc(b1-6)]Man(a1-6)[Neu5Ac(a2-3)Gal(b1-4)GlcNAc(b1-2)Man(a1-3)]Man(b1-4)GlcNAc(b1-4)GlcNAc
# Method in brief: as §1
# [9] = molecular target: Neu5Ac(a2-3)Gal(b1-4)GlcNAc(b1-2)[Neu5Ac(a2-3)Gal(b1-4)GlcNAc(b1-6)]Man(a1-6)[Neu5Ac(a2-3)Gal(b1-4)GlcNAc(b1-2)Man(a1-3)][GlcNAc(b1-4)]Man(b1-4)GlcNAc(b1-4)GlcNAc
# Method in brief: as §1
# [10] = molecular target: Neu5Ac(a2-3)Gal(b1-4)GlcNAc(b1-3)Gal
# Method in brief: as §1
# [11] = molecular target: Neu5Ac(a2-3)Gal(b1-4)GlcNAc(b1-3)Gal(b1-3)GlcNAc
# Method in brief: as §1
# [12] = molecular target: Neu5Ac(a2-3)Gal(b1-4)GlcNAc(b1-3)Gal(b1-4)GlcNAc
# Method in brief: as §1
# [13] = molecular target: Neu5Ac(a2-3)Gal(b1-4)GlcNAc(b1-3)Gal(b1-4)GlcNAc(b1-2)Man(a1-3)[Neu5Ac(a2-3)Gal(b1-4)GlcNAc(b1-3)Gal(b1-4)GlcNAc(b1-2)Man(a1-6)]Man(b1-4)GlcNAc(b1-4)GlcNAc
# Method in brief: as §1
# [14] = molecular target: Neu5Ac(a2-3)Gal(b1-4)GlcNAc(b1-3)Gal(b1-4)GlcNAc(b1-3)Gal(b1-4)GlcNAc
# Method in brief: as §1
# [15] = molecular target: Neu5Ac(a2-3)Gal(b1-4)GlcNAc(b1-3)Gal(b1-4)GlcNAc(b1-3)Gal(b1-4)GlcNAc(b1-2)Man(a1-3)[Neu5Ac(a2-3)Gal(b1-4)GlcNAc(b1-3)Gal(b1-4)GlcNAc(b1-3)Gal(b1-4)GlcNAc(b1-2)Man(a1-6)]GalNAc
# Method in brief: as §1
# [16] = molecular target: Neu5Ac(a2-3)Gal(b1-4)GlcNAc(b1-3)Gal(b1-4)GlcNAc(b1-3)GalNAc
# Method in brief: as §1
# [17] = molecular target: Neu5Ac(a2-3)Gal(b1-4)GlcNAc(b1-3)Gal(b1-4)GlcNAc(b1-3)[Neu5Ac(a2-3)Gal(b1-4)GlcNAc(b1-3)Gal(b1-4)GlcNAc(b1-6)]GalNAc
# Method in brief: as §1
# [18] = molecular target: Neu5Ac(a2-3)Gal(b1-4)GlcNAc(b1-3)Gal(b1-4)GlcNAc(b1-6)[Gal(b1-3)]GalNAc
# Method in brief: as §1
# [19] = molecular target: Neu5Ac(a2-3)Gal(b1-4)GlcNAc(b1-3)Gal(b1-4)[Fuc(a1-3)]GlcNAc
# Method in brief: as §1
# [20] = molecular target: Neu5Ac(a2-3)Gal(b1-4)GlcNAc(b1-3)GalNAc
# Method in brief: as §1
# [21] = molecular target: Neu5Ac(a2-3)Gal(b1-4)GlcNAc(b1-3)[Neu5Ac(a2-3)Gal(b1-4)GlcNAc(b1-6)]GalNAc
# Method in brief: as §1
# [22] = molecular target: Neu5Ac(a2-3)Gal(b1-4)GlcNAc(b1-6)GalNAc
# Method in brief: as §1
# [23] = molecular target: Neu5Ac(a2-3)Gal(b1-4)GlcNAc(b1-6)[Gal(b1-3)]GalNAc
# Method in brief: as §1
# [24] = molecular target: Neu5Ac(a2-3)Gal(b1-4)GlcNAc(b1-6)[Neu5Ac(a2-3)Gal(b1-3)]GalNAc
# Method in brief: as §1
# [25] = molecular target: Neu5Ac(a2-3)Gal(b1-4)GlcNAc6S
# Method in brief: as §1
# [26] = molecular target: Neu5Ac(a2-3)Gal(b1-4)[Fuc(a1-3)]GlcNAc
# Method in brief: as §1
# [27] = molecular target: Neu5Ac(a2-3)Gal(b1-4)[Fuc(a1-3)]GlcNAc(b1-2)Man
# Method in brief: as §1
# [28] = molecular target: Neu5Ac(a2-3)Gal(b1-4)[Fuc(a1-3)]GlcNAc(b1-3)Gal
# Method in brief: as §1
# [29] = molecular target: Neu5Ac(a2-3)Gal(b1-4)[Fuc(a1-3)]GlcNAc(b1-3)Gal(b1-4)GlcNAc
# Method in brief: as §1
# [30] = molecular target: Neu5Ac(a2-3)Gal(b1-4)[Fuc(a1-3)]GlcNAc(b1-3)Gal(b1-4)[Fuc(a1-3)]GlcNAc(b1-3)Gal(b1-4)[Fuc(a1-3)]GlcNAc
# Method in brief: as §1
# [31] = molecular target: Neu5Ac(a2-3)Gal(b1-4)[Fuc(a1-3)]GlcNAc(b1-3)GalNAc
# Method in brief: as §1
# [32] = molecular target: Neu5Ac(a2-3)Gal(b1-4)[Fuc(a1-3)]GlcNAc(b1-6)[Gal(b1-3)]GalNAc
# Method in brief: as §1
# [33] = molecular target: Neu5Ac(a2-3)Gal(b1-4)[Fuc(a1-3)]GlcNAc(b1-6)[Neu5Ac(a2-3)Gal(b1-3)]GalNAc
# Method in brief: as §1
# [34] = molecular target: Neu5Ac(a2-3)Gal(b1-4)[Fuc(a1-3)]GlcNAc6S
# Method in brief: as §1
# [35] = molecular target: Neu5Ac(a2-3)Gal6S(b1-4)GlcNAc
# Method in brief: as §1
# [36] = molecular target: Neu5Ac(a2-3)Gal6S(b1-4)[Fuc(a1-3)]GlcNAc
# Method in brief: as §1
# Neu5Ac(a2-3)GalNAc = molecular target: Neu5Ac(a2-3)GalNAc
# Method in brief: as §1
# [37] = molecular target: Neu5Ac(a2-3)GalNAc(b1-4)GlcNAc
# Method in brief: as §1
# [38] = molecular target: Neu5Ac(a2-3)[GalNAc(b1-4)]Gal(b1-4)Glc
# Method in brief: as §1
# [39] = molecular target: Neu5Ac(a2-3)[GalNAc(b1-4)]Gal(b1-4)GlcNAc
# Method in brief: as §1
# [40] = molecular target: Neu5Ac(a2-3)[GalNAc(b1-4)]Gal(b1-4)GlcNAc(b1-3)GalNAc
# Method in brief: as §1
# [41] = molecular target: Neu5Ac(a2-3)[Neu5Ac(a2-6)]GalNAc
# Method in brief: as §1
# Neu5Ac(a2-6)Gal = molecular target: Neu5Ac(a2-6)Gal
# Method in brief: as §1
# [42] = molecular target: Neu5Ac(a2-6)Gal(b1-3)GlcNAc(b1-3)[Gal(b1-4)GlcNAc(b1-6)]Gal(b1-4)Glc
# Method in brief: as §1
# Neu5Ac(a2-6)Gal(b1-4)Glc = molecular target: Neu5Ac(a2-6)Gal(b1-4)Glc
# Method in brief: as §1
binder,measurement,setting,value
"PA-IL (Pseudomonas aeruginosa), Q05097 (protein) MAWKGEVLANNEAGQVTSIIYNPGDVITIVAAGWASYGPTQKWGPQGDREHPDQGLICHDAFCGALVMKIGNSGTIPVNTGLFRWVAPNNVQGAITLIYNDVPGTYGNNSGSFSVNIGKDQS",glycan array binding signal (z-score),[1],-0.224
same,glycan array binding signal (z-score),[2],-0.244
same,glycan array binding signal (z-score),[3],-0.222
same,glycan array binding signal (z-score),[4],-0.231
same,glycan array binding signal (z-score),[5],-0.223
same,glycan array binding signal (z-score),[6],-0.249
same,glycan array binding signal (z-score),[7],-0.235
same,glycan array binding signal (z-score),[8],-0.22
same,glycan array binding signal (z-score),[9],-0.242
same,glycan array binding signal (z-score),[10],-0.196
same,glycan array binding signal (z-score),[11],-0.232
same,glycan array binding signal (z-score),[12],-0.229
same,glycan array binding signal (z-score),[13],0.023
same,glycan array binding signal (z-score),[14],-0.23
same,glycan array binding signal (z-score),[15],0.166
same,glycan array binding signal (z-score),[16],-0.249
same,glycan array binding signal (z-score),[17],-0.172
same,glycan array binding signal (z-score),[18],-0.187
same,glycan array binding signal (z-score),[19],-0.226
same,glycan array binding signal (z-score),[20],-0.221
same,glycan array binding signal (z-score),[21],-0.235
same,glycan array binding signal (z-score),[22],-0.237
same,glycan array binding signal (z-score),[23],-0.231
same,glycan array binding signal (z-score),[24],-0.241
same,glycan array binding signal (z-score),[25],-0.232
same,glycan array binding signal (z-score),[26],-0.231
same,glycan array binding signal (z-score),[27],-0.228
same,glycan array binding signal (z-score),[28],-0.232
same,glycan array binding signal (z-score),[29],-0.236
same,glycan array binding signal (z-score),[30],-0.21
same,glycan array binding signal (z-score),[31],-0.196
same,glycan array binding signal (z-score),[32],-0.202
same,glycan array binding signal (z-score),[33],-0.204
same,glycan array binding signal (z-score),[34],-0.221
same,glycan array binding signal (z-score),[35],-0.234
same,glycan array binding signal (z-score),[36],-0.234
same,glycan array binding signal (z-score),Neu5Ac(a2-3)GalNAc,-0.217
same,glycan array binding signal (z-score),[37],-0.236
same,glycan array binding signal (z-score),[38],-0.226
same,glycan array binding signal (z-score),[39],-0.225
same,glycan array binding signal (z-score),[40],-0.094
same,glycan array binding signal (z-score),[41],-0.232
same,glycan array binding signal (z-score),Neu5Ac(a2-6)Gal,-0.221
same,glycan array binding signal (z-score),[42],-0.225
same,glycan array binding signal (z-score),Neu5Ac(a2-6)Gal(b1-4)Glc,-0.22
